Results on 21 compounds are retold here after publication PMC6919601, “Identification of Plasmodium dipeptidyl aminopeptidase allosteric inhibitors by high throughput screening” (PLoS ONE, 2019).

Series [1] has as its target T1, DPAP1 (Plasmodium falciparum, UniProt Q8IIJ9).
T1 sequence (Q8IIJ9 370-599 limits assumed): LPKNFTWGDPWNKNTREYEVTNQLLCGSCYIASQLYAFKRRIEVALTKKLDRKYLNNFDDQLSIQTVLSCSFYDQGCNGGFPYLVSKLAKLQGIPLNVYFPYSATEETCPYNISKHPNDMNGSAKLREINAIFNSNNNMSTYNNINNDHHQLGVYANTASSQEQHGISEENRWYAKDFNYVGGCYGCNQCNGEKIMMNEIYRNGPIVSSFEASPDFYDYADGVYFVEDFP
T1 sequence (Q8IIJ9 28-209 limits assumed): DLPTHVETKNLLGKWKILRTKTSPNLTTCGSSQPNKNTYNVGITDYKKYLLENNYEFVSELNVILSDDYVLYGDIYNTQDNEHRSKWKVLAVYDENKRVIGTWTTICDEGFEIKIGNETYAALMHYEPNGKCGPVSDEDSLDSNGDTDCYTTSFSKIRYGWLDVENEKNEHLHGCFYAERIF
T1 sequence (Q8IIJ9 600-700 limits assumed): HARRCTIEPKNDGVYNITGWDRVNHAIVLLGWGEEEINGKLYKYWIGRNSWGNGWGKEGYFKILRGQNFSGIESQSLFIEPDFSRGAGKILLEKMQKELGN
As to the kind of experiment: biochemical. The class given is biochemical. To be noted: 10 μM compound, parasite lysates, (PR)2Rho, 30 min end-point; read-out: DPAP1 % Inhibition @ 10 uM.

The subject of series [2] is WI-38 primary lung fibroblast. The note with it: 10 uM; ref SMDC Assay #440; cited from earlier work.
The target of series [3] is T1, DPAP1. As to the kind of experiment: biochemical. The note with it: for Emax: 0.5 h, VR-ACC at Km, > = inhibition at the highest concentration, no baseline reached, read-out: Maximum % Inhibition DPAP1. Type of series: biochemical.
The test system of the next series is P. falciparum. As to the kind of experiment: Standard 72 h parasite replication assay. Type of series: cell-based, Plasmodium falciparum. The note with it: Plasmodium falciparum; 100 μM, 72h replication assay; read-out: Pf % Inh @ 100 μM.
Another series concerns the target DPAP3 (Plasmodium falciparum, UniProt Q8I1Y2). As to the kind of experiment: biochemical. To be noted: 0.5 h, read-out: Maximum % Inhibition DPAP3.
The target in another series is T2, FP3 (Plasmodium falciparum, UniProt Q8IIL0).
T2 sequence (Q8IIL0 243-492): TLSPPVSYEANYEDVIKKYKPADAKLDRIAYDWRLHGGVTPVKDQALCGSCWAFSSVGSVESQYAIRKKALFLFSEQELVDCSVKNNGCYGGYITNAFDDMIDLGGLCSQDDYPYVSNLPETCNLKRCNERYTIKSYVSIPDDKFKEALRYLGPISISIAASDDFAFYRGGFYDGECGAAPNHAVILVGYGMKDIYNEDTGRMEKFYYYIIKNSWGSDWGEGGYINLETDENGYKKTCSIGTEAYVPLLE
As to the kind of experiment: biochemical. The note with it: for Emax: 0.5 h, read-out: Maximum % Inhibition FP3, substrate at Km.

Another series has as its target bovine CatC (Bos taurus, UniProt Q3ZCJ8). As to the kind of experiment: Dose response inhibition assay, CatC with GR-AMC substrate. To be noted: for Emax: 0.5 h, read-out: Maximum % Inhibition CatC, substrate at Km.
Series [4] addresses T1, DPAP1. As to the kind of experiment: biochemical. The class given is biochemical.
Series [5] relates to WI-38 primary lung fibroblast. As to the kind of experiment: cells. The note with it: Homo sapiens, sheet All cpds;, SMDC cell toxicity assay 440. Set-up: Cell toxicity screen in WI-38 primary lung fibroblasts at 10 uM (SMDC assay 440).

Some results are limits rather than exact numbers.

Chain of bovine CatC (Q3ZCJ8 231-394 limits assumed): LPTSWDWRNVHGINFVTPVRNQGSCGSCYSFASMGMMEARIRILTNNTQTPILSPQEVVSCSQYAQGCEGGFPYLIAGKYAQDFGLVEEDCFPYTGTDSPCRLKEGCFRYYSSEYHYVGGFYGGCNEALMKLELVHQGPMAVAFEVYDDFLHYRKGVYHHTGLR
Chain of bovine CatC (Q3ZCJ8 25-134 limits assumed): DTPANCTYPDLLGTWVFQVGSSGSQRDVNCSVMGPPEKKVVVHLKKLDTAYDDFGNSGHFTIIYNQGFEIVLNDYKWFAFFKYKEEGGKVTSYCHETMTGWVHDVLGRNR
Chain of bovine CatC (Q3ZCJ8 395-463 limits assumed): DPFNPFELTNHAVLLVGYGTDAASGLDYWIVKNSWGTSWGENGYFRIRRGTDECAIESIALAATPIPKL
Chain of DPAP3 (Q8I1Y2 entry or part of it): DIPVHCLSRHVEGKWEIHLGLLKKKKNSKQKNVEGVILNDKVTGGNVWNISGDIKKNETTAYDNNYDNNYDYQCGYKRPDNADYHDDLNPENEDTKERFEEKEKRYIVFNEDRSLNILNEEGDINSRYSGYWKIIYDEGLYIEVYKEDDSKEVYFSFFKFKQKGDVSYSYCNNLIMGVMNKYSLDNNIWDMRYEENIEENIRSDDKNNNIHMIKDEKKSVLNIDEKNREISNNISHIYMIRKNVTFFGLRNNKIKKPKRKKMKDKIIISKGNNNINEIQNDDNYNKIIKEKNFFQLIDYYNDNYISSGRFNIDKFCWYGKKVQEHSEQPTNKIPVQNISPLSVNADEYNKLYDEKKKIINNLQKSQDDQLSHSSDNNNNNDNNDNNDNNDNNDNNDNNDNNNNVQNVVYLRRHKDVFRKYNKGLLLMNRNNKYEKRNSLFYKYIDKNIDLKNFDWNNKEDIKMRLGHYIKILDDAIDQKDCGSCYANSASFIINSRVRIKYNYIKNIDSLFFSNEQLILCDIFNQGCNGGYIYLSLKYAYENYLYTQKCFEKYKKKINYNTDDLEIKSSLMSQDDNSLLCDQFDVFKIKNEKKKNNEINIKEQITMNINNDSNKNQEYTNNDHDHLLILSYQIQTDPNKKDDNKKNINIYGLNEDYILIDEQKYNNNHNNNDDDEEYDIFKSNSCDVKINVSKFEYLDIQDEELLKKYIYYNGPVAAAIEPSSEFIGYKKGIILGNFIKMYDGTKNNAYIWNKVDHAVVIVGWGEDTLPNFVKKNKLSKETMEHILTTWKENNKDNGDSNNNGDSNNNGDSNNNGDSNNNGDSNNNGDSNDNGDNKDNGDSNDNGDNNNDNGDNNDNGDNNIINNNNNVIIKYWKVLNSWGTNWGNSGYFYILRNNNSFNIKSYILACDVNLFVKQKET

Regarding `C(=C\c1ccccc1)/CN1CCN(C2CCN(CCc3ccccc3)CC2)CC1` [SMDC27734, C(Cc1ccccc1)N2CCC(CC2)N3CCN(C\C=C\c4ccccc4)CC3], the inhibition at 10 µM on DPAP1 [1] was 98%. Also, in series [2], the “Cell Toxicity WI-38 primary lung fibroblast %Inhibition @ 10 uM” value is -3%.

As to `O=C1CN(S(=O)(=O)c2ccccc2)CCN1S(=O)(=O)c1ccccc1` [SMDC103197, O=C1CN(CCN1S(=O)(=O)c2ccccc2)S(=O)(=O)c3ccccc3], on DPAP1 [1], the inhibition at 10 µM was found to be 61%. For the same compound, in series [2], the “Cell Toxicity WI-38 primary lung fibroblast %Inhibition @ 10 uM” value is -2%.

Take `O=C(NCc1cccs1)c1cccc(COc2cccc(Cl)c2)c1` [SMDC103732, Clc1cccc(OCc2cccc(c2)C(=O)NCc3cccs3)c1]: the inhibition at 10 µM at DPAP1 [1] was -3%. In addition, in series [2], the “Cell Toxicity WI-38 primary lung fibroblast %Inhibition @ 10 uM” value is recorded as 12%.

In general, IC50 refers to the concentration at which inhibition is half-maximal. Read a low IC50 as higher potency. `NC(=O)c1c(NC(=O)COc2ccc(Cl)cc2)sc2c1CCCCC2` [SMDC106958, NC(=O)c1c2CCCCCc2sc1NC(=O)COc3ccc(Cl)cc3]: the results for the IC50 on DPAP1 [3], against FP3 and on bovine CatC were 80 µM, 6.5 µM and about 100 µM, respectively. Also, the Emax was 85% on DPAP1 [3], over 50% at DPAP3, 100% on FP3 and over 50% on bovine CatC. Moreover, the inhibition at 100 µM with P. falciparum was 25%. In addition, the inhibition at 10 µM on DPAP1 [1] is 65%. The “Cell Toxicity WI-38 primary lung fibroblast %Inhibition @ 10 uM” value in series [2] is recorded as 1.3%.

With `Cc1ccc(S(=O)(=O)c2cc3c(=O)n4ccccc4nc3n(C)c2=N)cc1` [SMDC108710, CN1C(=N)C(=CC2=C1N=C3C=CC=CN3C2=O)S(=O)(=O)c4ccc(C)cc4], the inhibition at 10 µM at DPAP1 [1] was found to be 58%. Moreover, the “Cell Toxicity WI-38 primary lung fibroblast %Inhibition @ 10 uM” value in [2] is on record as -1%.

Regarding `Cn1cc(Br)c(C(=O)Nc2sc3c(c2C(N)=O)CCCCC3)n1` [SMDC111619, Cn1cc(Br)c(n1)C(=O)Nc2sc3CCCCCc3c2C(=O)N], the results for the concentration for half-maximal inhibition (IC50) at DPAP1 [3], on FP3 and against bovine CatC were about 100 µM, 18 µM and about 50 µM, respectively. Further, the results for the Emax on DPAP1 [3], on FP3 and on bovine CatC were over 50%, 100% and over 80%, respectively. Further, the inhibition at 100 µM in the series on P. falciparum stood at 35%. Further, the inhibition at 10 µM at DPAP1 [1] was found to be 52%. Besides, in series [2], the “Cell Toxicity WI-38 primary lung fibroblast %Inhibition @ 10 uM” value is -5%.

Turning to `Cc1ccc(NC(=O)CN2C(=O)S/C(=C\c3ccccc3O)C2=O)cc1` [SMDC112370, Cc1ccc(NC(=O)CN2C(=O)S\C(=C/c3ccccc3O)\C2=O)cc1], the IC50 at DPAP1 [3] stood at 0.6 µM; on FP3 it was 21 µM; on bovine CatC it was 13.5 µM. In addition, the Emax worked out at 42% on DPAP1 [3], 100% at DPAP3, 100% on FP3 and 64% at bovine CatC. Besides, the inhibition at 100 µM in the series on P. falciparum was 6%. For the same compound, the inhibition at 10 µM at DPAP1 [1] came out at 51%. In [2], the “Cell Toxicity WI-38 primary lung fibroblast %Inhibition @ 10 uM” value is on record as 14%.

`Nc1c(C(=O)Nc2nccs2)sc2nc(-c3cccs3)cc(C(F)(F)F)c12` [SMDC153131, Nc1c(sc2nc(cc(c12)C(F)(F)F)c3cccs3)C(=O)Nc4nccs4]: the inhibition at 10 µM at DPAP1 [1] is 77%. Besides, in series [2], the “Cell Toxicity WI-38 primary lung fibroblast %Inhibition @ 10 uM” value is reported as 17%.

Regarding `S=c1[nH]c(=S)c2c3c(sc2[nH]1)CCC3` [SMDC153437, S=C1NC(=S)c2c3CCCc3sc2N1], at DPAP1 [1], the inhibition at 10 µM turned out to be 85%. Moreover, the “Cell Toxicity WI-38 primary lung fibroblast %Inhibition @ 10 uM” value in [2] is 5.7%.

`O=C1N=C(N2CCN(Cc3ccccc3)CC2)S/C1=C\c1cccc(O)c1` [SMDC154584, Oc1cccc(\C=C\2/SC(=NC2=O)N3CCN(Cc4ccccc4)CC3)c1]: the inhibition at 10 µM on DPAP1 [1] came out at 51%. Further, the “Cell Toxicity WI-38 primary lung fibroblast %Inhibition @ 10 uM” value in series [2] is on record as 5.5%.

As for `Cc1nc2scc(C)n2c(=O)c1S(=O)(=O)NC1CCCCCCC1` [SMDC168234, CC1=CSC2=NC(=C(C(=O)N12)S(=O)(=O)NC3CCCCCCC3)C], on DPAP1 [1], the inhibition at 10 µM is 72%. Also, the “Cell Toxicity WI-38 primary lung fibroblast %Inhibition @ 10 uM” value in series [2] is 14%.

Broadly, the Ki is the dissociation constant of the complex between target and ligand, obtained from inhibition or displacement. With `Cn1c(S)nc2c(=O)oc3ccccc3c21` [SMDC168313, Cn1c(S)nc2C(=O)Oc3ccccc3c12], the IC50 is 1.8 µM against DPAP1 [3], 6.3 µM against FP3 and about 100 µM at bovine CatC. The Emax was 78% at DPAP1 [3], 100% on FP3 and over 50% at bovine CatC. Also, the inhibition at 100 µM in the series with P. falciparum was determined as 20%. Also, the “DPAP1 inhibition Model” value on DPAP1 [4] (COM competitive, UNC uncompetitive, P-M partial mixed, P-C partial competitive, P-NC partial non-competitive, P-U partial uncompetitive) is listed as “P-C”. Also, at DPAP1 [4] (factor by which Km is modified at saturating inhibitor), the “DPAP1 α” value was 2.8 (0.2). In addition, the “DPAP1 β” value on DPAP1 [4] (factor by which kcat (Vmax) is modified at saturating inhibitor) was “= 1”. Moreover, at DPAP1 [4] (global fit to MOI model, standard error of fit in parentheses), the Ki came to 4.1 µM. Also, the inhibition at 10 µM at DPAP1 [1] was determined as 57%; in series [5], 12.2%. For the same compound, in series [2], the “Cell Toxicity WI-38 primary lung fibroblast %Inhibition @ 10 uM” value was 12%.

Consider `COc1ccc2nc3sc(C(=O)NCCCN4CCc5ccccc5C4)cc3cc2c1` [SMDC168384, COc1ccc2nc3sc(cc3cc2c1)C(=O)NCCCN4CCc5ccccc5C4], for which the inhibition at 10 µM came out at 65% on DPAP1 [1] and 11.6% in series [5]. The “Cell Toxicity WI-38 primary lung fibroblast %Inhibition @ 10 uM” value in [2] is 12%.

For `COc1ccc2c(c1)cc1c(=O)n(CC(=O)NCc3cccc(OC)c3OC)nc(C)n12` [SMDC175681, COc1ccc2c(c1)cc3C(=O)N(CC(=O)NCc4cccc(OC)c4OC)N=C(C)n23], the inhibition at 10 µM at DPAP1 [1] was found to be 99%. Moreover, the “Cell Toxicity WI-38 primary lung fibroblast %Inhibition @ 10 uM” value in [2] is given as -3%.

In the case of `Cn1c2ccccc2c2cnn(CC(=O)N3CCN(c4ncccn4)CC3)c(=O)c21` [SMDC177386, Cn1c2C(=O)N(CC(=O)N3CCN(CC3)c4ncccn4)N=Cc2c5ccccc15], at DPAP1 [1], the inhibition at 10 µM is 54%. For the same compound, the “Cell Toxicity WI-38 primary lung fibroblast %Inhibition @ 10 uM” value in series [2] is recorded as -5%.

On to `Cc1ccc(CNC(=O)c2noc3c2COc2ccccc2-3)cc1` [SMDC184592, Cc1ccc(CNC(=O)c2noc3c2COc4ccccc34)cc1], for which, at DPAP1 [1], the inhibition at 10 µM is 73%. For the same compound, the “Cell Toxicity WI-38 primary lung fibroblast %Inhibition @ 10 uM” value in series [2] is on record as -2%.

In the case of `Cc1cccc(CCNC(=O)c2noc3c2COc2ccccc2-3)c1` [SMDC184622, Cc1cccc(CCNC(=O)c2noc3c2COc4ccccc34)c1], the inhibition at 10 µM on DPAP1 [1] was 75%. Also, the “Cell Toxicity WI-38 primary lung fibroblast %Inhibition @ 10 uM” value in [2] is 0%.

For `COc1ccc(C(=O)CCN(C)CC(=O)O)cc1` [SMDC197624, COc1ccc(cc1)C(=O)CCN(C)CC(=O)O], at DPAP1 [1], the inhibition at 10 µM is 56%. In addition, in series [2], the “Cell Toxicity WI-38 primary lung fibroblast %Inhibition @ 10 uM” value is 1.8%.

With `CCOc1ccc(C(=O)CCNC(C(=O)O)C(C)CC)cc1` (centres unmarked) [SMDC197673, CCOc1ccc(cc1)C(=O)CCNC(C(C)CC)C(=O)O], the inhibition at 10 µM on DPAP1 [1] was found to be 71%; in series [5], 11.4%. In series [2], the “Cell Toxicity WI-38 primary lung fibroblast %Inhibition @ 10 uM” value is recorded as 11%.

On to `N#Cc1c(C(F)(F)F)cc(-c2cccs2)nc1SCC(=O)N1CCOCC1` [compound 97214], for which the inhibition at 10 µM in [5] was -2%.

In the case of `O=C(c1cccnc1)c1conc1C(=O)c1ccc(Br)cc1` [compound 112054], in [5], the inhibition at 10 µM is 11.9%.
